# Measured values as given in the supplement of paper PMC3334620.
# Over roughly 33,000 sequences, “E-score (-0.5 to 0.5)” has its median near -0.053; the highest 2% begin near 0.37. The list shows a part of the results.
# Target: Hap1 (UniProt P0CE41)
# Test: PBM E-score (8-mer binding enrichment) (E-score (-0.5 to 0.5)); higher = stronger / more preferred TF binding; most listed sequences are background and not binding sites
# Conditions: protein concentration: 200 nM; construct: GST-DNA-binding domain
# How it was run: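 Detection of bound protein used fluorescent anti-GST, with scans normalised by masliner. The proteins were GST-tagged yeast transcription factors applied at about 100-200 nM to universal all-10-mer Agilent arrays made double-stranded by primer extension. Each ungapped eight-base word, pooled with its reverse complement, was scored with an E-score from the Universal PBM Analysis Suite.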
# Sequence of UniProt P0CE41 (P0CE41 whole entry): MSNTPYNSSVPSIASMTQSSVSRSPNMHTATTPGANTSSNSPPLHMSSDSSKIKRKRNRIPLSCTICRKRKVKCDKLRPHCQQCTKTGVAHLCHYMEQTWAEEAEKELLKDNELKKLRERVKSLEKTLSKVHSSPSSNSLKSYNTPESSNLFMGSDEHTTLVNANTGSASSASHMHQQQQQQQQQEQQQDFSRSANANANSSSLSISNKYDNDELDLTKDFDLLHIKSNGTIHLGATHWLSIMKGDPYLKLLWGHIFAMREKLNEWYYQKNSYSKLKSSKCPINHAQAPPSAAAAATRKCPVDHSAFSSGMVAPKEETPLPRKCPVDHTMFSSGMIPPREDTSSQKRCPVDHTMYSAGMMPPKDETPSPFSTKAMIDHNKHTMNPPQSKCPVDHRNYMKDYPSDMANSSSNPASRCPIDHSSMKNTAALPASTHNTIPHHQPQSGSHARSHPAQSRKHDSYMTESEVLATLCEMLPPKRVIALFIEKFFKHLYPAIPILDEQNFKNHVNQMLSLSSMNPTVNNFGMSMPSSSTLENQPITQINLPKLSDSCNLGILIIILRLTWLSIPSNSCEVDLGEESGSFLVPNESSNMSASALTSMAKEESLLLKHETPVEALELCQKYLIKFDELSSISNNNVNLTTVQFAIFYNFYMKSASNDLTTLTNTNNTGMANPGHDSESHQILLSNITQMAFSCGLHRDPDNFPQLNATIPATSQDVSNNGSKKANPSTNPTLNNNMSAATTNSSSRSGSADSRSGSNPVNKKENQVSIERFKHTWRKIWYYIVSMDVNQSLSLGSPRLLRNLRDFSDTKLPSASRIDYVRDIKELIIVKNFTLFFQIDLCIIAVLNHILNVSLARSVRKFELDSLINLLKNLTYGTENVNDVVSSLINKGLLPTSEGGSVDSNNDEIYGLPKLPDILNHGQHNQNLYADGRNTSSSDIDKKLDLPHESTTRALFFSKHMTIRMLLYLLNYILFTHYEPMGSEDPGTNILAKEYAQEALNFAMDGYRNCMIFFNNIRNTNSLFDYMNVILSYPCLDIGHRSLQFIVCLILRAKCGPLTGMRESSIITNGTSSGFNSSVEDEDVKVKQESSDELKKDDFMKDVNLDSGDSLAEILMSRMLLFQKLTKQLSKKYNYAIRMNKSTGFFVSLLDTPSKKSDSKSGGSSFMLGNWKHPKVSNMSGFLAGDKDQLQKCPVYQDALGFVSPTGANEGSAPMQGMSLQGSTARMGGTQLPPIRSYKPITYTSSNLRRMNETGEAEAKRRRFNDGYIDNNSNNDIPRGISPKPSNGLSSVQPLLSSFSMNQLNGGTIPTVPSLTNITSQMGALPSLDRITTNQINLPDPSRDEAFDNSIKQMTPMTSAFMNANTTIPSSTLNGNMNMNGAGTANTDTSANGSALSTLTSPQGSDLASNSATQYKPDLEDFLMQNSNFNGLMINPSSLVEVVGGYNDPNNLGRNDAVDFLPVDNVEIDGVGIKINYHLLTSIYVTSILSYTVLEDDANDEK
row,Sequence,PBM E-score
1,CTTCCGCC,0.154
2,ATCATTGA,-0.139
3,ATGAGAGC,-0.11
4,GTATGACA,-0.0338
5,AGGCACGC,-0.0542
6,TTAACGAA,0.0696
7,GAACTTAA,0.0986
8,CATAGTAC,-0.098
9,GAACCCTC,0.0184
10,GGTTCCGA,0.279
11,CTTGTAGA,-0.21
12,CGAACTAG,0.162
13,CGTCTATC,0.0051
14,CAGTTTCA,-0.241
15,GTACCCAC,0.0414
16,CCCGGACG,0.388
17,ATCACCAA,-0.144
18,AGACCGCC,0.0771
19,CGCATTTA,0.312
20,CCCAGAGG,-0.125
21,ATCCCACC,0.211
22,AGGCGCAA,0.0886
23,TTCCGCAA,0.263
24,ATCCGAAG,0.326

row,Sequence,PBM E-score
1,ATATCCCG,0.286
2,AACTTCGA,-0.127
3,CTCAGATA,-0.0708
4,AGAACGTG,-0.0896
5,AATAACAT,-0.106
6,CTTATTGC,0.023
7,AAGTATGT,-0.281
8,CAGGCGCA,-0.262
9,AGCAGTGC,-0.272
10,TAGGCGGA,0.216
11,TTGCGCAA,-0.00107
12,CAACCTTG,-0.111
13,CGGTGGGC,0.0993
14,AATTTACT,-0.135
15,TAGGGTCA,-0.082
16,ACATCGAC,-0.145
17,AATTTGCC,-0.0245
18,CTTCGACC,0.148
19,ATACCAAT,0.0198
20,CAATGCCG,0.315
21,GATTAGCC,0.0595
22,TATTCTCA,-0.165
23,AAATACGG,0.0862
24,AGGCTCTC,-0.0785

row,Sequence,PBM E-score
1,CCCTAGTC,-0.331
2,CCACCGTA,-0.00821
3,GAAGGCTC,-0.0392
4,CTGACGCA,-0.221
5,CACATGAA,-0.194
6,ATAAGAAC,0.031
7,CTAAGAAC,0.155
8,TCTTCGAA,-0.201
9,AACTTATA,0.0458
10,ATCAGCGG,0.271
11,CAGCACGG,0.0657
12,ACGAGTAG,-0.0829
13,AACGGTGT,0.0274
14,GCAGTGAA,-0.206
15,CAGTACTC,-0.168
16,CACACATA,-0.0995
17,CTGTGCAA,-0.308
18,CCGTGACC,0.226
19,CCTGAGCG,-0.161
20,TACGTCAA,-0.214
21,ATTCCTTA,-0.206
22,ACCATTAA,0.139
23,AACCCAGA,-0.176
24,AACTAATG,-0.0714

row,Sequence,PBM E-score
1,GCACCGGC,0.291
2,TACAAGTA,-0.259
3,CGTGCCGA,0.164
4,ATCCTACG,-0.0295
5,AGGGCGTA,-0.137
6,ATCTACAT,-0.134
7,GGGTACGA,-0.0424
8,ATATCCAG,0.0668
9,CCCACTTC,0.0403
10,ATAGGGAG,-0.147
11,ATAATCCA,-0.0585
12,CCGGTCGA,0.333
13,AAACATAA,-0.242
14,TAAACATA,0.03
15,ATTTGTTG,-0.0781
16,ACTAGTCT,-0.29
17,AATGGAGA,0.0809
18,AGGCAAAG,-0.246
19,CGGTAGGA,0.115
20,GACCCTGC,0.0209
21,AGGGATAA,-0.282
22,ATTCACGA,-0.0824
